What all share (format): in vivo
The subject of assay [1] is Botrytis cinerea. Briefly: Test Example B: Gray mold on tomato. The conditions noted are these: class of control value, Table 7.
Assay [2] relates to Alternaia brassicicola. Nature of the assay: Test Example C: Alternaria sooty spot on cabbage. The conditions noted are these: class of control value, Table 7.
Assay [3] concerns Plasmopara viticola. Briefly: Test Example G: Downy mildew on vine. The note with it: 250 ppm spray, 2.5 ml/pot; investigated 7 to 10 days after inoculation.
Assay [4] concerns Puccinia recondita. Briefly: Test Example E: Brown rust on wheat. The conditions noted are these: class of control value, Table 7.
The subject of assay [5] is Blumeria graminis f. sp. hordei. Briefly: Test Example D: Powdery mildew on barley. The note with it: class of control value, Table 7.

The text below walks through data of patent US11178870B2 (priority 2017, dated 2021).

Regarding `Cc1sccc1-c1cc(Cl)c(=O)n(CC(F)F)c1-c1c(F)cccc1F` [Compound 480], the “Test B control value (gray mold on tomato)” value (“Test B control value” for short) in assay [1] is “L (L shows the control value of 50% or less)”. Also, the “Test C control value (Alternaria sooty spot on cabbage)” value (“Test C control value” below) in assay [2] is reported as “H (H shows the control value more than 50%)”. The “Test G control value (downy mildew on vine)” value (from here on “Test G control value”) in assay [3] is listed as “L (L shows the control value of 50% or less)”. Besides, the “Test E control value (brown rust on wheat)” value (shortened to “Test E control value”) in assay [4] is reported as “L (L shows the control value of 50% or less)”. Moreover, the “Test D control value (powdery mildew on barley)” value (“Test D control value” for short) in assay [5] is listed as “L (L shows the control value of 50% or less)”.
Regarding `Cn1c(-c2ccc(F)cc2Cl)c(-n2cc(F)cn2)ccc1=O` [Compound 481], the “Test B control value” value in assay [1] is “H (H shows the control value more than 50%)”. Besides, the “Test C control value” value in assay [2] is on record as “L (L shows the control value of 50% or less)”. Further, the “Test G control value” value in assay [3] was “L (L shows the control value of 50% or less)”. Further, the “Test E control value” value in assay [4] is recorded as “H (H shows the control value more than 50%)”. In addition, in assay [5], the “Test D control value” value was “H (H shows the control value more than 50%)”.
As to `Cn1c(-c2ccc(F)cc2Cl)c(-n2cc(F)cn2)cc(Cl)c1=O` [Compound 482], the “Test B control value” value in assay [1] was “H (H shows the control value more than 50%)”. Also, the “Test C control value” value in assay [2] is on record as “H (H shows the control value more than 50%)”. In addition, in assay [3], the “Test G control value” value is “L (L shows the control value of 50% or less)”. In addition, the “Test E control value” value in assay [4] is recorded as “H (H shows the control value more than 50%)”. Moreover, the “Test D control value” value in assay [5] was “H (H shows the control value more than 50%)”.
Regarding `Cn1c(-c2ccc(F)cc2Cl)c(-n2cc(F)cn2)cc(Br)c1=O` [Compound 483], in assay [1], the “Test B control value” value is reported as “H (H shows the control value more than 50%)”. For the same compound, the “Test C control value” value in assay [2] was “H (H shows the control value more than 50%)”. Besides, the “Test G control value” value in assay [3] is on record as “L (L shows the control value of 50% or less)”. Besides, the “Test E control value” value in assay [4] is recorded as “H (H shows the control value more than 50%)”. Further, the “Test D control value” value in assay [5] is recorded as “H (H shows the control value more than 50%)”.
Take `Cc1sccc1-c1cc(Cl)c(=O)n(C)c1-c1c(F)cccc1F` [Compound 484]: in assay [1], the “Test B control value” value is listed as “H (H shows the control value more than 50%)”. The “Test C control value” value in assay [2] is “H (H shows the control value more than 50%)”. In addition, in assay [3], the “Test G control value” value is “L (L shows the control value of 50% or less)”. Also, in assay [4], the “Test E control value” value is reported as “H (H shows the control value more than 50%)”. In assay [5], the “Test D control value” value was “L (L shows the control value of 50% or less)”.
In the case of `CCn1c(-c2ccc(Br)cc2F)c(-n2cc(C)cn2)ccc1=O` [Compound 485], in assay [1], the “Test B control value” value is recorded as “L (L shows the control value of 50% or less)”. The “Test C control value” value in assay [2] is listed as “H (H shows the control value more than 50%)”. Also, in assay [3], the “Test G control value” value is reported as “L (L shows the control value of 50% or less)”. In addition, the “Test E control value” value in assay [4] was “H (H shows the control value more than 50%)”. Besides, the “Test D control value” value in assay [5] is given as “H (H shows the control value more than 50%)”.
Turning to `CCn1c(-c2ccc(F)cc2C#N)c(-n2ncc(C)c2Cl)cc(Br)c1=O` [Compound 486], the “Test B control value” value in assay [1] is reported as “H (H shows the control value more than 50%)”. Moreover, in assay [2], the “Test C control value” value is “H (H shows the control value more than 50%)”. The “Test G control value” value in assay [3] was “H (H shows the control value more than 50%)”. In addition, in assay [4], the “Test E control value” value is on record as “H (H shows the control value more than 50%)”. Besides, the “Test D control value” value in assay [5] is recorded as “H (H shows the control value more than 50%)”.
Take `Cc1cnn(-c2cc(Cl)c(=O)n(C)c2-c2ccccc2F)c1Cl` [Compound 488]: the “Test B control value” value in assay [1] is “H (H shows the control value more than 50%)”. Moreover, in assay [2], the “Test C control value” value is listed as “H (H shows the control value more than 50%)”. For the same compound, in assay [3], the “Test G control value” value is “H (H shows the control value more than 50%)”. For the same compound, the “Test E control value” value in assay [4] is “H (H shows the control value more than 50%)”. Besides, the “Test D control value” value in assay [5] is reported as “H (H shows the control value more than 50%)”.
For the compound `Cc1cnn(-c2cc(Br)c(=O)n(C)c2-c2ccccc2F)c1` [Compound 489], the “Test B control value” value in assay [1] was “L (L shows the control value of 50% or less)”. For the same compound, the “Test C control value” value in assay [2] is “H (H shows the control value more than 50%)”. In assay [3], the “Test G control value” value is given as “L (L shows the control value of 50% or less)”. For the same compound, the “Test E control value” value in assay [4] is reported as “H (H shows the control value more than 50%)”. In assay [5], the “Test D control value” value is “L (L shows the control value of 50% or less)”.
Consider `Cc1cnn(-c2cc(Br)c(=O)n(C)c2-c2ccccc2F)c1Cl` [Compound 490], for which the “Test B control value” value in assay [1] was “H (H shows the control value more than 50%)”. Besides, the “Test C control value” value in assay [2] is “H (H shows the control value more than 50%)”. For the same compound, in assay [3], the “Test G control value” value is “H (H shows the control value more than 50%)”. The “Test E control value” value in assay [4] is given as “H (H shows the control value more than 50%)”. Further, in assay [5], the “Test D control value” value is “H (H shows the control value more than 50%)”.
With `Cc1sc(Br)cc1-c1ccc(=O)n(C)c1-c1c(F)cccc1F` [Compound 491], the “Test B control value” value in assay [1] is recorded as “H (H shows the control value more than 50%)”. Also, in assay [2], the “Test C control value” value was “L (L shows the control value of 50% or less)”. Moreover, in assay [3], the “Test G control value” value is “H (H shows the control value more than 50%)”. Also, in assay [4], the “Test E control value” value is on record as “H (H shows the control value more than 50%)”. Also, the “Test D control value” value in assay [5] is listed as “L (L shows the control value of 50% or less)”.
Turning to `O=c1ccc(-c2ccsc2)c(-c2c(F)cccc2F)n1CC(F)F` [Compound 493], the “Test B control value” value in assay [1] is recorded as “H (H shows the control value more than 50%)”. The “Test C control value” value in assay [2] was “H (H shows the control value more than 50%)”. In addition, in assay [3], the “Test G control value” value is listed as “H (H shows the control value more than 50%)”. Further, in assay [4], the “Test E control value” value is on record as “H (H shows the control value more than 50%)”. In addition, the “Test D control value” value in assay [5] is given as “H (H shows the control value more than 50%)”.
For the compound `Cc1sc(Br)cc1-c1cc(Br)c(=O)n(CC(F)F)c1-c1c(F)cccc1F` [Compound 494], the “Test B control value” value in assay [1] is on record as “L (L shows the control value of 50% or less)”. Besides, the “Test C control value” value in assay [2] is “H (H shows the control value more than 50%)”. Besides, in assay [3], the “Test G control value” value is recorded as “H (H shows the control value more than 50%)”. For the same compound, the “Test E control value” value in assay [4] was “H (H shows the control value more than 50%)”. Further, the “Test D control value” value in assay [5] is “H (H shows the control value more than 50%)”.
As to `Cc1ccsc1-c1ccc(=O)n(C)c1-c1c(F)cccc1F` [Compound 496], in assay [1], the “Test B control value” value is given as “H (H shows the control value more than 50%)”. The “Test C control value” value in assay [2] is “H (H shows the control value more than 50%)”. Besides, the “Test G control value” value in assay [3] was “H (H shows the control value more than 50%)”. The “Test E control value” value in assay [4] was “H (H shows the control value more than 50%)”. Besides, the “Test D control value” value in assay [5] is given as “L (L shows the control value of 50% or less)”.
As for `CCn1c(-c2ccc(OC)cc2Cl)c(-c2ccsc2Cl)ccc1=O` [Compound 497], the “Test B control value” value in assay [1] was “H (H shows the control value more than 50%)”. Also, the “Test C control value” value in assay [2] is “H (H shows the control value more than 50%)”. The “Test G control value” value in assay [3] is given as “H (H shows the control value more than 50%)”. For the same compound, the “Test E control value” value in assay [4] is listed as “H (H shows the control value more than 50%)”. The “Test D control value” value in assay [5] is reported as “L (L shows the control value of 50% or less)”.
As to `Cc1ccsc1-c1cc(Cl)c(=O)n(C)c1-c1c(F)cccc1F` [Compound 498], the “Test B control value” value in assay [1] is listed as “H (H shows the control value more than 50%)”. For the same compound, in assay [2], the “Test C control value” value is recorded as “H (H shows the control value more than 50%)”. Moreover, the “Test G control value” value in assay [3] is reported as “H (H shows the control value more than 50%)”. For the same compound, the “Test E control value” value in assay [4] was “H (H shows the control value more than 50%)”. The “Test D control value” value in assay [5] is recorded as “H (H shows the control value more than 50%)”.
As for `CCn1c(-c2ccc(OC)cc2Cl)c(-c2ccsc2Cl)cc(Cl)c1=O` [Compound 502], the “Test B control value” value in assay [1] is reported as “H (H shows the control value more than 50%)”. Further, in assay [2], the “Test C control value” value is “H (H shows the control value more than 50%)”. Further, in assay [3], the “Test G control value” value is recorded as “H (H shows the control value more than 50%)”. Also, the “Test E control value” value in assay [4] is recorded as “H (H shows the control value more than 50%)”. In addition, the “Test D control value” value in assay [5] is “L (L shows the control value of 50% or less)”.
`CCn1c(-c2ccc(F)cc2F)c(-c2ccsc2C)ccc1=O` [Compound 503]: in assay [1], the “Test B control value” value was “H (H shows the control value more than 50%)”. Further, the “Test C control value” value in assay [2] is given as “H (H shows the control value more than 50%)”. For the same compound, in assay [3], the “Test G control value” value is listed as “H (H shows the control value more than 50%)”. Moreover, the “Test E control value” value in assay [4] is reported as “H (H shows the control value more than 50%)”. Also, the “Test D control value” value in assay [5] was “H (H shows the control value more than 50%)”.
